# Assay results from publication PMC7819943, “Rice protein-binding microarrays: a tool to detect cis-acting elements near promoter regions in rice”.
# The list shows a part of the results.
# Target: T1, OsWOX13 (Oryza sativa, UniProt Q5QMM3 1-267)
# T1 sequence: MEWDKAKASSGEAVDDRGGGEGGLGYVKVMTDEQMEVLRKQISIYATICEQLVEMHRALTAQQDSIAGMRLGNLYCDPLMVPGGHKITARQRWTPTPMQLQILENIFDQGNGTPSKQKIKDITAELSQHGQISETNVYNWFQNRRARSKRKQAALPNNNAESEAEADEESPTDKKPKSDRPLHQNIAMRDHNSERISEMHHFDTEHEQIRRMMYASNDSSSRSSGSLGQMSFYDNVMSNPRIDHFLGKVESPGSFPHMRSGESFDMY
# Assay: protein-binding microarray (RPBM); PBS, 2% BSA, 51.3 ng/ul salmon testes DNA, 50 uM zinc acetate, 200 nM TF, 25 C, 1 h; high values mean tight binding
# Conditions: protein: recombinant; tags: N-terminal polyhistidine and DsRed monomer fusion (pET32a); label: CyDye5-dUTP incorporated in the synthesized complementary strand; 3' TTTTT single-stranded linker to array surface; dsDNA, one strand shown
# In short: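 The binding signal is fluorescence intensity per feature, in arbitrary units, read on an Axon 4000B scanner. Polyhistidine- and DsRed-tagged transcription factors (N-terminal fusions) from E. coli BL21-CodonPlus were purified on Ni–NTA and applied at 200 nM for 1 h at 25 °C to a double-stranded, BSA-blocked custom Agilent array in buffer with 50 µM zinc acetate.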
row,Sequence,binding signal
1,ACATAATATATTGATTGCCTTAAAAGATTACAGACTCTTTCGGAGTCACCTAGTGCAG,37200 fluorescence intensity (a.u.)
2,AATCACTTTCTACTGCTTATTGGTTTCTGCACGTTTCTTTCGGAGTCACCTAGTGCAG,3170 fluorescence intensity (a.u.)
3,CTCCATCACTGGATTGACCTCATATTTGGTTACAAGCAGCCGGAGTCACCTAGTGCAG,3260 fluorescence intensity (a.u.)
4,ACTCCTATTATAGCTTAGATTAGATGCGCCACTTTCGGCACGGAGTCACCTAGTGCAG,7220 fluorescence intensity (a.u.)
5,AGTCCTAGTAATTAAATGTATACATGTTAGGCACGATGTTCGGAGTCACCTAGTGCAG,6250 fluorescence intensity (a.u.)
6,TTTTATGATTTTCCAAAGAATTAATCTTTGAATGTGCCTTCGGAGTCACCTAGTGCAG,5250 fluorescence intensity (a.u.)
7,GATGAACATTGATTTGCTCGGATCTTGGATGCTGTTTGTGCGGAGTCACCTAGTGCAG,20800 fluorescence intensity (a.u.)
8,TCAAGTTTGACTAAGTTTATTGATAAATATAGTAATATTTCGGAGTCACCTAGTGCAG,3480 fluorescence intensity (a.u.)
9,GCAGAATAAACTTCGATTAACACTAAACAGTGCAGTGCATCGGAGTCACCTAGTGCAG,4350 fluorescence intensity (a.u.)
10,GAGTAGAGGTGGGAGGAAGCGGTGGTGTGGTGGGGTGGGGCGGAGTCACCTAGTGCAG,4140 fluorescence intensity (a.u.)
11,CGCTAAAGAAGACGCTAATTGCGATCGAGTTAACCCGGTGCGGAGTCACCTAGTGCAG,4160 fluorescence intensity (a.u.)
12,GATGATTAAAGTTGGGCATGAAAGATCATGCCTTTATCCTCGGAGTCACCTAGTGCAG,14600 fluorescence intensity (a.u.)
13,GAGGCCTACCGGCCAATTAATTTAATCACATCTGTTAGTTCGGAGTCACCTAGTGCAG,3680 fluorescence intensity (a.u.)
14,TGAGATTGGATTTTCTGTCGACAGAGACTTAGCAATTCCGCGGAGTCACCTAGTGCAG,16300 fluorescence intensity (a.u.)
15,GGCCTAATTCATTGACGGGAACTAAGTGGGCTGAATTCGTCGGAGTCACCTAGTGCAG,7250 fluorescence intensity (a.u.)
16,CGTCTACCGTGATTGTTTCGATACAATTGTGTGCAAGTTACGGAGTCACCTAGTGCAG,21200 fluorescence intensity (a.u.)
17,AATCCATTTGATGATTTGAGTAGTTGTCATAGCACAGGGCCGGAGTCACCTAGTGCAG,6550 fluorescence intensity (a.u.)
18,TTTGATTAATCATACAATTCGTTGCGTTTTCTGCGCCGGACGGAGTCACCTAGTGCAG,52200 fluorescence intensity (a.u.)
19,CCAACCAATTAATCCGCCATGGATGGATCATGGATGAACACGGAGTCACCTAGTGCAG,6480 fluorescence intensity (a.u.)
20,TATGCTTAATTATCAAAACACATTACCGTCACATAAGTTGCGGAGTCACCTAGTGCAG,15500 fluorescence intensity (a.u.)
21,CCAGATTTTGTGATGTGATCTGGAACTCGCCTGTTCGGTTCGGAGTCACCTAGTGCAG,3500 fluorescence intensity (a.u.)
22,TTGCTAATTGGGTTGCCAAGTGTGCCACGTGGGAGCAAACCGGAGTCACCTAGTGCAG,11100 fluorescence intensity (a.u.)
23,ATAATTGTACCTAAACGCAAAATAGACCTATTTGAACCGCCGGAGTCACCTAGTGCAG,8070 fluorescence intensity (a.u.)
